Experimental data published in the supplement of paper PMC4604168 (melanoma cell lines).
The other results are listed elsewhere or left out. Most values come without repeats; read them as rough.

Assays:
Assay in all cases: cell count relative to DMSO control; melanoma cells; higher = more viable cells
Settings in all cases: library dose: standard library concentration; 72 h; first compound 2 µM
[1] = system: G361
[2] = system: IPC-298
[3] = system: IST-MEL1
[4] = system: LB2518-MEL
[5] = system: LOXIMVI
[6] = system: MEL-HO
[7] = system: MZ2-MEL
[8] = system: MeWo
[9] = system: RPMI7951
[10] = system: RVH-421
[11] = system: SkMel28
[12] = system: SkMel2
[13] = system: SkMel30
[14] = system: SkMel5
[15] = system: UACC257
[16] = system: UACC62
[17] = system: WM115
[18] = system: WM1716
[19] = system: WM1745
[20] = system: WM3526
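Note: cells treated in 1,536-well plates, then fixed and DAPI-stained, with nuclei counted from automated high-throughput microscope images.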

Row | SMILES | cell count [1] | cell count [2] | cell count [3] | cell count [4] | cell count [5] | cell count [6] | cell count [7] | cell count [8] | cell count [9] | cell count [10] | cell count [11] | cell count [12] | cell count [13] | cell count [14] | cell count [15] | cell count [16] | cell count [17] | cell count [18] | cell count [19] | cell count [20]
1 | CCCCCCCCCCCCCCCCCCOP(=O)([O-])OC1CC[N+](C)(C)CC1 [Perifosine] + CCCCCCCCc1ccc(CCC(N)(CO)CO)cc1 [fingolimod] (partner dose 10 µM) | 0.522% | 40.7% | 23.7% | 0.168% | 24.4% | 2.74% | 34.8% | 57.5% | 0.99% | 44.1% | 1.93% | 0.093% | 10.6% | 70.2% | 75.8% | 14% | 22.7% | 61.9% | 5.25% | 44.5%
2 | CCCCCCCCCCCCCCCCCCOP(=O)([O-])OC1CC[N+](C)(C)CC1 [Perifosine] + CNC(=O)c1cc(Oc2ccc(NC(=O)Nc3ccc(Cl)c(C(F)(F)F)c3)cc2)ccn1 [sorafenib] (partner dose 2 µM) | 92% | 68.7% | 115% | 82.4% | 105% | 89.2% | 106% | 92.6% | 51.6% | 117% | 67.5% | 81.8% | 91.4% | 94.3% | 87.3% | 89.4% | 101% | 103% | 94% | 86.8%
3 | CCCCCCCCCCCCCCCCCCOP(=O)([O-])OC1CC[N+](C)(C)CC1 [Perifosine] + NC(=O)c1ccc(N(C(N)=O)c2c(F)cccc2F)nc1-c1ccc(F)cc1F [VX702] (partner dose 2 µM) | 89.2% | 117% | 12.8% | 84.9% | 77.8% | 98% | 92.8% | 91% | 32.9% | 130% | 81.8% | 94.8% | 82% | 104% | 93.1% | 76.5% | 88.6% | 113% | 74.6% | 99.5%
4 | CCCCCCCCCCCCCCCCCCOP(=O)([O-])OC1CC[N+](C)(C)CC1 [Perifosine] + Nc1nc(F)nc2c1ncn2[C@@H]1O[C@H](CO)[C@@H](O)[C@@H]1O [fludarabine] (partner dose 1 µM) | 79.2% | 76.7% | 72.6% | 76.6% | 89.3% | 70.4% | 93.6% | 89.3% | 41.5% | 95.7% | 1.46% | 1.7% | 15.5% | 38.5% | 38.8% | 79.3% | 83.5% | 82% | 88.6% | 23.3%
5 | CCCCCCCCCCCCCCCCCCOP(=O)([O-])OC1CC[N+](C)(C)CC1 [Perifosine] + Nc1cccc2c1CN(C1CCC(=O)NC1=O)C2=O [lenalidomide] (partner dose 5 µM) | 88% | 97.6% | 108% | 105% | 72.3% | 101% | 110% | 105% | 46.5% | 88.1% | 62.4% | 82.4% | 93.3% | 109% | 83.2% | 66.8% | 88.5% | 85.3% | 110% | 76.7%
6 | CCCCCCCCCCCCCCCCCCOP(=O)([O-])OC1CC[N+](C)(C)CC1 [Perifosine] + CCN(CC)CCNC(=O)c1c(C)[nH]c(/C=C2\C(=O)Nc3ccc(F)cc32)c1C [sunitinib] (partner dose 2 µM) | 91.1% | 105% | 92.5% | 69.2% | 109% | 111% | 129% | 78.9% | 10.3% | 81.4% | 58% | 73.1% | 74.8% | 62% | 113% | 71.5% | 86.8% | 123% | 31.8% | 75.7%
7 | Cn1sc(=O)n(Cc2ccccc2)c1=O + C[C@@H]1CCN(C(=O)CC#N)C[C@@H]1N(C)c1ncnc2[nH]ccc12 [CP690550] (partner dose 5 µM) | 96.3% | 96.3% | 94.2% | 94.2% | 110% | 96.4% | 117% | 89.2% | 94.2% | 94.5% | 121% | 100% | 97.3% | 83.5% | 101% | 71.3% | 97.6% | 121% | 77.4% | 102%
8 | C[C@@H](N)c1ccc(C(=O)Nc2ccnc3[nH]ccc23)cc1 + Cn1c(Nc2ccc(C(F)(F)F)cc2)nc2cc(Oc3ccnc(-c4ncc(C(F)(F)F)[nH]4)c3)ccc21 [CHIR265] (partner dose 0.4 µM) | 23.5% | 48.5% | 81.5% | 21.2% | 101% | 58.7% | 34.4% | 70.2% | 19% | 36.6% | 22.2% | 58.2% | 52.9% | 38.9% | 59.1% | 41.1% | 59.8% | 53.9% | 39.4% | 47.4%
9 | C[C@@H](N)c1ccc(C(=O)Nc2ccnc3[nH]ccc23)cc1 + CCCS(=O)(=O)Nc1ccc(F)c(C(=O)c2c[nH]c3ncc(Cl)cc23)c1F [PLX4720] (partner dose 0.4 µM) | 72.2% | 87.8% | 66.6% | 96% | 91.7% | 48.5% | 44.6% | 67.9% | 49.6% | 48% | 65.5% | 92.4% | 70.2% | 38.5% | 48.9% | 62.1% | 71.5% | 43.5% | 47.6% | 39.7%
10 | Cn1sc(=O)n(Cc2ccccc2)c1=O + COCC[n+]1c2c(n(Cc3cnccn3)c1C)C(=O)c1ccccc1C2=O [YM155] (partner dose 0.002 µM) | 86% | 69.6% | 42% | 31.3% | 45% | 103% | 30.3% | 53.9% | 39.5% | 140% | 59.5% | 44% | 70.7% | 37.8% | 32.4% | 52.5% | 72.5% | 66.2% | 87% | 39.4%
11 | Cn1sc(=O)n(Cc2ccccc2)c1=O + O=C(Nc1cccc(Cl)c1)Nc1ncc(CCNc2ncnc3ccsc23)s1 [SNS314] (partner dose 0.004 µM) | 71% | 83.6% | 48.3% | 74.5% | 66.6% | 80.6% | 87.9% | 67.9% | 65.2% | 103% | 45.7% | 87.4% | 84.2% | 68.2% | 67% | 106% | 61.3% | 50.3% | 76.8% | 72.6%
12 | CCCCCCCCCCCCCCCCCCOP(=O)([O-])OC1CC[N+](C)(C)CC1 [Perifosine] + Nc1ncn([C@H]2C[C@H](O)[C@@H](CO)O2)c(=O)n1 [decitabine] (partner dose 0.5 µM) | 88.4% | 59.1% | 69.8% | 68.1% | 80.6% | 76.1% | 78.3% | 71.1% | 36.1% | 82.7% | 63.1% | 103% | 73% | 76.7% | 110% | 59.3% | 98.6% | 72.2% | 80.6% | 86.8%
13 | Cn1sc(=O)n(Cc2ccccc2)c1=O + CC1(C)NC(=O)N(c2ccc([N+](=O)[O-])c(C(F)(F)F)c2)C1=O [nilutamide] (partner dose 5 µM) | 77.2% | 95.3% | 99.6% | 91.8% | 92.2% | 78.4% | 97.6% | 84.2% | 59.7% | 124% | 85.1% | 92.8% | 87% | 80.5% | 94.4% | 87.7% | 77.5% | 90.9% | 127% | 81.3%
14 | Cn1sc(=O)n(Cc2ccccc2)c1=O + C[C@]1(c2nc3c(C(N)=O)cccc3[nH]2)CCCN1 [Veliparib] (partner dose 7 µM) | 87.2% | 90.7% | 99.2% | 69.4% | 71.8% | 94.7% | 87.8% | 94.8% | 51.7% | 96% | 80% | 91.5% | 109% | 106% | 99.3% | 65.5% | 85.8% | 91% | 103% | 103%
15 | C[C@@H](N)c1ccc(C(=O)Nc2ccnc3[nH]ccc23)cc1 + C#Cc1cccc(Nc2ncnc3cc(OCCOC)c(OCCOC)cc23)c1 [erlotinib] (partner dose 4 µM) | 86.7% | 72.1% | 76.3% | 89.2% | 75.6% | 42.4% | 43.3% | 86.6% | 43% | 66.4% | 72.7% | 110% | 85.4% | 56.1% | 93.3% | 67.7% | 66.4% | 63.4% | 41% | 104%
16 | C[C@@H](N)c1ccc(C(=O)Nc2ccnc3[nH]ccc23)cc1 + OCc1c[nH]c2ccccc12 [Indole-3-carbinol] (partner dose 4 µM) | 106% | 112% | 94.7% | 93.7% | 117% | 73.1% | 55.2% | 86.5% | 59.6% | 50.1% | 123% | 98.2% | 110% | 90.3% | 74.6% | 78.2% | 112% | 43.7% | 47.1% | 103%
17 | CCCCCCCCCCCCCCCCCCOP(=O)([O-])OC1CC[N+](C)(C)CC1 [Perifosine] + CC1(C)NC(=O)N(c2ccc([N+](=O)[O-])c(C(F)(F)F)c2)C1=O [nilutamide] (partner dose 5 µM) | 68.1% | 109% | 93.8% | 80.3% | 71.5% | 101% | 109% | 96.4% | 27.1% | 56.6% | 37.7% | 69.6% | 95.7% | 103% | 97% | 78.3% | 84.3% | 70% | 71.3% | 85.9%
18 | Cn1sc(=O)n(Cc2ccccc2)c1=O + CN(C)S(=O)(=O)c1ccc2c(c1)/C(=C/c1cc3c([nH]1)CCCC3)C(=O)N2 [SU6656] (partner dose 2 µM) | 61.3% | 72.6% | 89.9% | 67.1% | 97.2% | 85.3% | 95.2% | 80.8% | 35.4% | 95.7% | 80.9% | 82.6% | 80.3% | 80.4% | 89.5% | 63.4% | 48.8% | 68.1% | 54.2% | 74.1%
19 | C[C@@H](N)c1ccc(C(=O)Nc2ccnc3[nH]ccc23)cc1 + Cc1nc(Nc2ncc(C(=O)Nc3c(C)cccc3Cl)s2)cc(N2CCN(CCO)CC2)n1 [dasatanib] (partner dose 0.02 µM) | 89% | 80.8% | 80.5% | 116% | 22.9% | 65.9% | 43.2% | 65.9% | 44% | 40.7% | 67.9% | 83.5% | 106% | 62% | 58.4% | 89.1% | 91.2% | 31.1% | 33.7% | 91.3%
